Here are results for 57 molecules from PubChem BioAssay AID463173 (ICCB-Longwood Screening Facility, Harvard Medical School, 2010).

Out of some 52,000 compounds screened, about 1,700 (3.3%) were called active. Cut-off read from the data, not from the text of the source: active = survival mostly below about 52% (no sharp cut-off); inactive = mostly above about 56%. The list shows a part of the results.

For this experiment, the system named is Wild type. As to the kind of experiment: growth inhibition of S. aureus wild type versus tarO mutant, primary screen, teichoic acid synthesis inhibitors, RN4220, OD600 (AID 463173). Conditions: S. aureus RN4220 wild type/DeltatarO growth, OD600, 18 h, active compounds read low, screened at 18.75 µg/mL (by protocol).
Turning to `Cc1cccc(N2CCN(S(=O)(=O)c3ccc(F)c(C(=O)Nc4ccc(C(C)C)cc4)c3)CC2)c1C`, the survival was inactive: 75%.
The figure for `COc1ccc(-c2noc(CN3CCN(c4cccc(Cl)c4)CC3)n2)cc1` is inactive: 12%; for `COc1ccc(OC)c(Nc2ncnc3c2cnn3-c2ccc(C)cc2)c1` it is active: 14%.
Turning to `Cc1cc(C)cc(NS(=O)(=O)c2ccc3[nH]cc(C(=O)N4CCCCCC4)c(=O)c3c2)c1`, the survival was inactive: 79%.
With `C#CC(C)(CC)NC(=O)c1cc2c(n(-c3ccc(Cl)cc3)c1=O)CC(C)(C)CC2=O` (configuration not stated) the figure was inactive: 77%; with `COc1ccccc1N(CC(=O)Nc1ccc(C)c(Cl)c1)S(=O)(=O)c1ccc(C)cc1`, inactive: 76%.
The figure for `CCOc1ccc(CC(=O)NC2CC(=O)N(c3ccc(C)c(C)c3)C2)cc1` (configuration not stated) is inactive: 90%.
The figure for `O=C(C1CCC1)N1CCCc2cc(S(=O)(=O)Nc3ccc(F)cc3)ccc21` is inactive: 74%; for `CC(=O)N1CCc2cc(Br)cc(S(=O)(=O)N3CCN(c4cc(C)ccc4C)CC3)c21` it is inactive: 74%.
In the case of `CC(=O)N1c2ccccc2C(=O)C1N1CCN(c2cccc(C(F)(F)F)c2)CC1` (configuration not stated), the survival is inactive: 65%.
With `COCCn1c(C)cc(O)c(C(c2ccc(C)cc2)N2CCCCC2)c1=O` (configuration not stated) the figure was inactive: 75%.
In the case of `Cc1cccc(CNC(=O)CCCN2C(=O)CCn3nc(-c4cn(C)c5ccccc45)cc32)c1`, the survival is active: -6%.
Consider `Cc1ccccc1OCC(=O)N(Cc1ccc(N(C)C)cc1)CC1CCCO1` (configuration not stated), for which the survival is inactive: 109%.
With `OCc1nc2ccccc2n1Cc1c(F)cccc1Cl` the figure was inactive: 98%; with `Cn1cc(-c2cc3n(n2)CCC(=O)N3CC(=O)O)c2ccccc21`, inactive: 76%.
For the molecule `CCN1CCN(c2c(S(=O)(=O)c3ccccc3)cnc3ccc(Cl)cc23)CC1`, the survival was inactive: 119%.
With `CCN(CC)c1ccc(NC(=O)c2cc(S(=O)(=O)N3CCc4ccccc43)cn2C)c(C)c1` the figure was inactive: 87%; with `COc1ccccc1CNC(=O)CCCn1nc(C)c2sc3ccccc3c2c1=O`, inactive: 87%.
With `CC(C(=O)O)n1nc2ccccc2n1` (configuration not stated) the figure was inactive: 114%.
Regarding `COc1cccc(NC(=O)C2CCCN(c3nnc(-n4c(C)ccc4C)s3)C2)c1` (configuration not stated), the survival was inactive: 67%.
For the molecule `Cc1ccc(OCC(=O)OCc2cc(=O)n3nc(-c4cccs4)sc3n2)cc1`, the survival is inactive: 80%.
With `COCCCn1c(=N)c(S(=O)(=O)c2ccccc2)cc2c(=O)n3cc(C)ccc3nc21` the figure was inactive: 81%; with `O=C(O)CCC(=O)N1CCN(Cc2ccc3c(c2)OCO3)CC1`, inactive: 127%.
The figure for `CC(C)(C)OC(=O)N1CCC(c2c(C(=O)N3CCN(c4ccc(Cl)cc4)CC3)cnn2-c2ccc(F)cc2F)CC1` is inactive: 66%; for `Cc1ccccc1OCC(=O)Nc1ccc2nc(SCC(=O)N(C)c3ccccc3)sc2c1` it is inactive: 61%; for `Cn1cc(S(=O)(=O)c2ccc(Cl)cc2)c(=O)c2cc(F)c(N3CCCC3)cc21` it is inactive: 73%.
With `COc1ccc(Cl)cc1NC(=O)c1cc2ccc3ccc(C)[nH]c3c2n1` the figure was inactive: 77%.
On to `COc1ccc(CNc2nc(-c3ccco3)nn2C(=O)c2ccccc2Cl)cc1`, for which the survival was inactive: 95%.
The figure for `COc1ccc(-c2cc(C(=O)Nc3ccc4c(c3)OCO4)no2)cc1OC` is inactive: 108%.
With `COc1cc(NC(=O)c2cc(-c3cccs3)on2)c(OC)cc1Cl` the figure was inactive: 80%; with `Cn1c(=O)c2nc(SCC(=O)Nc3cc(Cl)cc(Cl)c3)n(C)c2n(C)c1=O`, inactive: 111%.
With `CCc1ccc(NC(=O)CSc2c(C)cnc3c2c(=O)n(C)c(=O)n3C)cc1` the figure was inactive: 59%; with `Cc1nc2sccn2c(=O)c1S(=O)(=O)NCc1ccc(F)cc1`, inactive: 84%.
Consider `Cc1ccc(Cn2c(CNS(=O)(=O)c3ccc(C(C)(C)C)cc3)nc3cccnc32)cc1`, for which the survival was inactive: 120%.
As for `O=C(c1cc(-c2ccc(Cl)cc2)on1)N(Cc1cccc(F)c1)Cc1ccco1`, the survival is inactive: 80%.
With `COc1ccccc1CNc1nc2ccccc2c2nc(-c3cccnc3)nn12` the figure was inactive: 67%; with `O=C(COc1ccccc1Cl)OCc1cc(=O)n2nc(C3CC3)sc2n1`, inactive: 69%.
As to `COc1ccc(NC(=O)C(=O)NCCc2ccc(OC)c(OC)c2)c(OC)c1`, the survival was inactive: 134%.
The figure for `Cc1c(NC(=O)c2cc(-c3ccc(O)cc3)on2)c(=O)n(-c2ccccc2)n1C` is inactive: 139%; for `CC(=O)Nc1ccc(Cl)cn1` it is inactive: 98%.
With `COCCCNC(=O)c1cnn(-c2ccccc2Cl)c1C1CCN(C(=O)OC(C)(C)C)CC1` the figure was inactive: 98%.
With `COc1ccc(CCNC(=O)c2cccc(-n3c(C)nc4cccnc43)c2)cc1OC` the figure was inactive: 71%; with `COc1ccc(-c2cc3nc(-c4ccc(Br)cc4)cc(C(F)(F)F)n3n2)cc1`, inactive: 73%; with `COC(=O)c1ccc(NC(=O)CSc2cn(CC(=O)N3CCCCCC3)c3ccccc23)cc1`, inactive: 94%.
Take `COc1ccc(CNC(=O)C2CCN(C(=O)c3ccc(-n4ccc5ccccc54)s3)CC2)cc1`: the survival was inactive: 57%.
With `CC1=Nc2cc(C(=O)NC3CCCC3)ccc2Sc2ccc(C)cc21` the figure was inactive: 75%; with `COC(=O)c1cc(C)nc2c1c(=O)nc(SCc1cccc(C)c1)n2C1CC1`, inactive: 68%.
The figure for `COc1cccc(C(=O)Nc2ccccc2C(=O)OCc2cc(=O)n3c(C)csc3n2)c1` is inactive: 73%; for `COc1ccc(NC(=O)Cn2c(C)cc3ccccc3c2=O)c(OC)c1` it is inactive: 69%.
The figure for `Cc1nn(-c2nc(-c3ccc(F)cc3)cc(C(F)(F)F)n2)c(C)c1Br` is active: -2%; for `CCC(=O)Nc1ccc(Cl)c(NC(=O)c2cc3ccccc3o2)c1` it is inactive: 115%; for `O=C(Nc1ccc(N2CCC(c3ccccc3)C2)c(C(=O)O)c1)c1ccc(Cl)cc1` (configuration not stated) it is inactive: 47%.
Turning to `COc1cccc(NC(=O)CCc2c(C)nc3c4cccnc4nn3c2C)c1`, the survival is inactive: 85%.
The figure for `CCOc1ccc(Oc2nc(NCC(C)C)nc(NC(C)(C)C)n2)nn1` is inactive: 89%; for `CCOc1ccc(CNC(=O)CCS(=O)(=O)c2cc3c(cc2Cl)NC(=O)CO3)cc1OC` it is inactive: 76%.
The figure for `CCOC(=O)c1ccccc1NC(=O)Nc1cc2c(cc1N1CCCCC1)n(C)c(=O)n2C` is inactive: 77%; for `Cc1nn(-c2ccc(F)cc2)c(-n2cccc2)c1C(=O)NCCCN1CCN(c2ccccc2F)CC1` it is inactive: 77%.
